The other results are listed elsewhere or left out.
What was measured:
Test in all cases: glycan array binding signal (z-score within array); higher = stronger binding
Details in all cases: glycan notation: IUPAC condensed, linker removed; mutation: N224Q
[1] = molecular target: Gal(a1-6)Glc
How it was run: (§1)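 Glycan array data were curated from 3228 arrays in the Consortium for Functional Glycomics database and kept only where the protein sequence was available. Glycan names were converted to IUPAC-condensed notation, and columns mapping to the same glycan were averaged. The binding signal is a within-array Z-score, averaged across arrays of the same protein sequence at different concentrations or buffers and across linkers. Negative Z-scores can be read as non-binding.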

[2] = molecular target: Gal(b1-2)Gal
How it was run: as §1

[3] = molecular target: Gal(b1-3)Gal
How it was run: as §1

[4] = molecular target: Gal(b1-3)Gal(b1-4)GlcNAc
How it was run: as §1

[5] = molecular target: Gal(b1-3)GalNAc
How it was run: as §1

[6] = molecular target: Gal(b1-3)GalNAc(a1-3)[Fuc(a1-2)]Gal(b1-4)Glc
How it was run: as §1

[7] = molecular target: Gal(b1-3)GalNAc(a1-3)[Fuc(a1-2)]Gal(b1-4)GlcNAc
How it was run: as §1

[8] = molecular target: Gal(b1-3)GalNAc(b1-3)Gal
How it was run: as §1

[9] = molecular target: Gal(b1-3)GalNAc(b1-3)Gal(a1-4)Gal(b1-4)Glc
How it was run: as §1

[10] = molecular target: Gal(b1-3)GalNAc(b1-4)Gal(b1-4)Glc
How it was run: as §1

[11] = molecular target: Gal(b1-3)GalNAc(b1-4)[Neu5Ac(a2-3)]Gal(b1-4)Glc
How it was run: as §1

[12] = molecular target: Gal(b1-3)GlcNAc
How it was run: as §1

[13] = molecular target: Gal(b1-3)GlcNAc(a1-3)Gal(b1-4)GlcNAc
How it was run: as §1

[14] = molecular target: Gal(b1-3)GlcNAc(a1-6)Gal(b1-4)GlcNAc
How it was run: as §1

[15] = molecular target: Gal(b1-3)GlcNAc(b1-2)Man
How it was run: as §1

[16] = molecular target: Gal(b1-3)GlcNAc(b1-2)Man(a1-3)[Gal(b1-3)GlcNAc(b1-2)Man(a1-6)]Man(b1-4)GlcNAc(b1-4)GlcNAc
How it was run: as §1

[17] = molecular target: Gal(b1-3)GlcNAc(b1-2)Man(a1-3)[Gal(b1-3)GlcNAc(b1-2)Man(a1-6)]Man(b1-4)GlcNAc(b1-4)[Fuc(a1-6)]GlcNAc
How it was run: as §1

[18] = molecular target: Gal(b1-3)GlcNAc(b1-2)Man(a1-3)[GlcNAc(b1-4)][Gal(b1-3)GlcNAc(b1-2)Man(a1-6)]Man(b1-4)GlcNAc(b1-4)GlcNAc
How it was run: as §1

[19] = molecular target: Gal(b1-3)GlcNAc(b1-2)[Gal(b1-3)GlcNAc(b1-6)]Man(a1-6)[Gal(b1-3)GlcNAc(b1-2)Man(a1-3)]Man(b1-4)GlcNAc(b1-4)GlcNAc
How it was run: as §1

[20] = molecular target: Gal(b1-3)GlcNAc(b1-3)Gal(b1-3)GlcNAc
How it was run: as §1

[21] = molecular target: Gal(b1-3)GlcNAc(b1-3)Gal(b1-4)Glc
How it was run: as §1

[22] = molecular target: Gal(b1-3)GlcNAc(b1-3)Gal(b1-4)GlcNAc
How it was run: as §1

[23] = molecular target: Gal(b1-3)GlcNAc(b1-3)Gal(b1-4)GlcNAc(b1-2)Man(a1-3)[Gal(b1-3)GlcNAc(b1-3)Gal(b1-4)GlcNAc(b1-2)Man(a1-6)]Man(b1-4)GlcNAc(b1-4)GlcNAc
How it was run: as §1

[24] = molecular target: Gal(b1-3)GlcNAc(b1-3)Gal(b1-4)GlcNAc(b1-2)[Gal(b1-3)GlcNAc(b1-3)Gal(b1-4)GlcNAc(b1-6)]Man(a1-6)[Gal(b1-3)GlcNAc(b1-3)Gal(b1-4)GlcNAc(b1-2)Man(a1-3)]Man(b1-4)GlcNAc(b1-4)[Fuc(a1-6)]GlcNAc
How it was run: as §1

[25] = molecular target: Gal(b1-3)GlcNAc(b1-3)Gal(b1-4)GlcNAc(b1-3)Gal(b1-4)GlcNAc(b1-2)[Gal(b1-3)GlcNAc(b1-3)Gal(b1-4)GlcNAc(b1-3)Gal(b1-4)GlcNAc(b1-6)]Man(a1-6)[Gal(b1-3)GlcNAc(b1-3)Gal(b1-4)GlcNAc(b1-3)Gal(b1-4)GlcNAc(b1-2)Man(a1-3)]Man(b1-4)GlcNAc(b1-4)[Fuc(a1-6)]GlcNAc
How it was run: as §1

[26] = molecular target: Gal(b1-3)GlcNAc(b1-3)Gal(b1-4)GlcNAc(b1-6)[Gal(b1-3)GlcNAc(b1-3)]Gal(b1-4)Glc
How it was run: as §1

[27] = molecular target: Gal(b1-3)GlcNAc(b1-3)Gal(b1-4)[Fuc(a1-3)]GlcNAc
How it was run: as §1

[28] = molecular target: Gal(b1-3)GlcNAc(b1-3)Gal(b1-4)[Fuc(a1-3)]GlcNAc(b1-6)[Gal(b1-3)GlcNAc(b1-3)]Gal(b1-4)Glc
How it was run: as §1

[29] = molecular target: Gal(b1-3)GlcNAc(b1-3)GalNAc
How it was run: as §1

[30] = molecular target: Gal(b1-3)GlcNAc(b1-6)Gal(b1-4)GlcNAc
How it was run: as §1

[31] = molecular target: Gal(b1-3)GlcNAc(b1-6)GalNAc
How it was run: as §1

[32] = molecular target: Gal(b1-3)GlcNAc(b1-6)[Gal(b1-3)]GalNAc
How it was run: as §1

[33] = molecular target: Gal(b1-3)GlcNAc6S
How it was run: as §1

[34] = molecular target: Gal(b1-3)[Fuc(a1-4)]GlcNAc
How it was run: as §1

[35] = molecular target: Gal(b1-3)[Fuc(a1-4)]GlcNAc(b1-2)Man
How it was run: as §1

[36] = molecular target: Gal(b1-3)[Fuc(a1-4)]GlcNAc(b1-2)Man(a1-3)[Gal(b1-3)[Fuc(a1-4)]GlcNAc(b1-2)Man(a1-6)]Man(b1-4)GlcNAc(b1-4)[Fuc(a1-6)]GlcNAc
How it was run: as §1

[37] = molecular target: Gal(b1-3)[Fuc(a1-4)]GlcNAc(b1-3)Gal(b1-3)[Fuc(a1-4)]GlcNAc
How it was run: as §1

B1: AAL (Aleuria aurantia) (protein)
chain: MPTEFLYTSKIAAISWAATGGRQQRVYFQDLNGKIREAQRGGDNPWTGGSSQNVIGEAKLFSPLAAVTWKSAQGIQIRVYCVNKDNILSEFVYDGSKWITGQLGSVGVKVGSNSKLAALQWGGSESAPPNIRVYYQKSNGSGSSIHEYVWSGKWTAGASFGSTVPGTGIGATAIGPGRLRIYYQATDNKIREHCWDSNSWYVGGFSASASAGVSIAAISWGSTPQIRVYWQKGREELYEAAYGGSWNTPGQIKDASRPTPSLPDTFIAANSSGNIDISVFFQASGVSLQQWQWISGKGWSIGAVVPTGTPAGW
- glycan array binding signal (z-score) [1]: -0.31
- glycan array binding signal (z-score) [2]: -0.302
- glycan array binding signal (z-score) [3]: -0.301
- glycan array binding signal (z-score) [4]: -0.317
- glycan array binding signal (z-score) [5]: -0.313
- glycan array binding signal (z-score) [6]: -0.303
- glycan array binding signal (z-score) [7]: -0.317
- glycan array binding signal (z-score) [8]: -0.297
- glycan array binding signal (z-score) [9]: -0.313
- glycan array binding signal (z-score) [10]: -0.314
- glycan array binding signal (z-score) [11]: -0.317
- glycan array binding signal (z-score) [12]: -0.326
- glycan array binding signal (z-score) [13]: -0.303
- glycan array binding signal (z-score) [14]: -0.324
- glycan array binding signal (z-score) [15]: -0.281
- glycan array binding signal (z-score) [16]: -0.301
- glycan array binding signal (z-score) [17]: -0.178
- glycan array binding signal (z-score) [18]: -0.26
- glycan array binding signal (z-score) [19]: -0.296
- glycan array binding signal (z-score) [20]: -0.313
- glycan array binding signal (z-score) [21]: -0.273
- glycan array binding signal (z-score) [22]: -0.309
- glycan array binding signal (z-score) [23]: -0.297
- glycan array binding signal (z-score) [24]: -0.181
- glycan array binding signal (z-score) [25]: -0.072
- glycan array binding signal (z-score) [26]: -0.295
- glycan array binding signal (z-score) [27]: 0.207
- glycan array binding signal (z-score) [28]: -0.308
- glycan array binding signal (z-score) [29]: -0.313
- glycan array binding signal (z-score) [30]: -0.317
- glycan array binding signal (z-score) [31]: -0.303
- glycan array binding signal (z-score) [32]: -0.313
- glycan array binding signal (z-score) [33]: -0.309
- glycan array binding signal (z-score) [34]: 0.751
- glycan array binding signal (z-score) [35]: -0.154
- glycan array binding signal (z-score) [36]: -0.261
- glycan array binding signal (z-score) [37]: 0.798

Reference: the supplement of paper PMC8728848
